The full ranking holds about 33,000 sequences; the median of “E-score (-0.5 to 0.5)” is about -0.035, and the highest 2% start at about 0.35. Some of the results follow.
target: T1, Pdr3 (UniProt P33200); test: PBM E-score (8-mer binding enrichment) (E-score (-0.5 to 0.5)); higher = stronger / more preferred TF binding; most listed sequences are background and not binding sites; settings: protein concentration: 200 nM; construct: GST-full length
T1 sequence: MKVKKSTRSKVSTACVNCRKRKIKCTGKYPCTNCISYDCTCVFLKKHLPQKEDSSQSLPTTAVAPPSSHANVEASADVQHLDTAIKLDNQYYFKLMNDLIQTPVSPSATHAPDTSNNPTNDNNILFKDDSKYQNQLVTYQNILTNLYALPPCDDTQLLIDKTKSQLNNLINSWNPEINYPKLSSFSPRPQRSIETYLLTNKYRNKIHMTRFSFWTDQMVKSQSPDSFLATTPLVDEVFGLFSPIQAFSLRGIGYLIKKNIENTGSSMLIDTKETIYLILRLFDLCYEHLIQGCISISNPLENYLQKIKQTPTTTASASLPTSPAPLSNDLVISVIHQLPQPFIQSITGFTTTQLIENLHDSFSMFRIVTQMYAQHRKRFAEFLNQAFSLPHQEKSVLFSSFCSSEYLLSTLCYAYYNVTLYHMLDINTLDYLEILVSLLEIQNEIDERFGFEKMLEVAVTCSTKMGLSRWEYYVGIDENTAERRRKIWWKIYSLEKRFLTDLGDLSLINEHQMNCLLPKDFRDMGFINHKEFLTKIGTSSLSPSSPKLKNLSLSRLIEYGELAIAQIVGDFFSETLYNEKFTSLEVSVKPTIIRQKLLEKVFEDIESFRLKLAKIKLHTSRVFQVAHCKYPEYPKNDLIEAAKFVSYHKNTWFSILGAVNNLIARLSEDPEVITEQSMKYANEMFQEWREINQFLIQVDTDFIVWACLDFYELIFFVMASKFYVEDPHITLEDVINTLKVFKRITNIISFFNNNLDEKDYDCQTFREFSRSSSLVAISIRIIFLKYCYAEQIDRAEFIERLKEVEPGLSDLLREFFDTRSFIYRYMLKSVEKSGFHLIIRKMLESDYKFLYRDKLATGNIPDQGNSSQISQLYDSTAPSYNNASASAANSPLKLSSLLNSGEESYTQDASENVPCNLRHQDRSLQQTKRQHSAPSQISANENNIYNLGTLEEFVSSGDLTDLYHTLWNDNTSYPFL
In short: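 Full-length yeast transcription factors or their DNA-binding domains, GST-tagged and expressed with PURExpress, were applied at about 100-200 nM to universal all-10-mer Agilent arrays. These arrays had been made double-stranded by primer extension on fresh or once-stripped slides. Detection used fluorescent anti-GST, normalisation used masliner, and E-scores for ungapped eight-base words pooled with reverse complements came from the Universal PBM Analysis Suite.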

Sequence | PBM E-score
AAGGGGAA | -0.156
AGCTAGGA | -0.0823
AACAGACT | -0.131
AGCAGCCT | -0.258
AAATTTCG | -0.089
CCGTAAAA | 0.172
GGGTAAAA | 0.173
GACGGAAA | 0.43
CTTGCCCA | -0.156
AGTCAGTG | -0.05
AGGAAACC | 0.00802
ACACGGGG | 0.147
CACCAACG | -0.0913
AAAGCTAC | -0.177
CTCCTCTA | -0.354
TCGTCTCA | -0.0562
GCATTCGA | 0.132
CAGCAAAA | -0.0582
CCCCCGCG | 0.349
CTCTTACC | 0.217
AACGTTTC | -0.179
CAGTAAAG | -0.156

Sequence | PBM E-score
GGACGACA | 0.127
CGCAGAAA | -0.12
GGTAGTGA | 0.0142
AATGAGAG | -0.122
AACACTGT | -0.0501
ATTGGCCC | -0.274
AACTTAAA | -0.233
ATACTACA | 0.186
CACCAGCG | 0.0339
AAAGTTTA | 0.0872
TAATTACA | -0.0755
CGGGCGCA | 0.143
GATGAAAC | 0.0428
GCGTCACC | -0.185
CAGAAACG | 0.0256
CTGAAATA | -0.0601
AACCTTCC | 0.107
ATCGAAAA | -0.0829
ATCCAAAA | -0.00928
GCTTCAGA | -0.181
CCATAAGA | -0.0239
CTCATGAG | -0.203

Sequence | PBM E-score
GAACTAGC | -0.00564
AAGGCCTG | -0.308
AGCGGGGC | 0.111
ACCATACG | -0.0138
AGCGAATG | -0.14
GGTTTACA | 0.0275
AAACATGC | -0.139
AGTAACGC | -0.124
ATTAGCTG | -0.116
AATCGGGT | 0.266
ACAACACC | -0.0128
CTTAAAAC | 0.0851
CATTAAAG | -0.125
CGCCGGCG | 0.452
CGCTAGAC | -0.327
ACATAGGC | -0.05
CCGATGTA | 0.0383
CTTCTACC | -0.195
ATAGCCAC | -0.0283
TATAGAAA | -0.16
AAAGTACC | -0.00215
AGACCGTC | -0.059

Sequence | PBM E-score
CCTCCGCG | 0.445
GTTCGCAA | -0.0113
AATATCAG | 0.0083
ACTATAGT | -0.0368
CTGCGGGC | 0.218
CTGCGGCC | 0.196
GAAGTACC | 0.0442
GTCTCGCA | -0.137
GGCCCCCC | -0.0393
GAAATAGA | 0.0892
CAGTCGTA | -0.136
GCAGCGCA | -0.0518
CTTTATCA | -0.281
ATACAAGG | -0.0921
ATGCATCA | 0.107
AAACGCCC | 0.135
CACAACTC | 0.0536
CAAACAAG | -0.0108
GCATCTCA | -0.155
AATGTCAG | -0.0916
